Laboratory results from publication PMC10967194.
These are yes or no findings as the source states them, for the method shown. Binding seen in cells or lysates may run through a third protein. Some results given as binding are weak or reduced against the parent protein; the word gives no strength.

Sequences of proteins named here, by UniProt entry; tags and fusion partners are left off. A change or cut given only in a name is not applied to a line headed by its entry. A line that says so, or that is headed by a name, gives the form on record, which may keep a tag or linker. Residues count along the entry.
UniProt Q9QZM4: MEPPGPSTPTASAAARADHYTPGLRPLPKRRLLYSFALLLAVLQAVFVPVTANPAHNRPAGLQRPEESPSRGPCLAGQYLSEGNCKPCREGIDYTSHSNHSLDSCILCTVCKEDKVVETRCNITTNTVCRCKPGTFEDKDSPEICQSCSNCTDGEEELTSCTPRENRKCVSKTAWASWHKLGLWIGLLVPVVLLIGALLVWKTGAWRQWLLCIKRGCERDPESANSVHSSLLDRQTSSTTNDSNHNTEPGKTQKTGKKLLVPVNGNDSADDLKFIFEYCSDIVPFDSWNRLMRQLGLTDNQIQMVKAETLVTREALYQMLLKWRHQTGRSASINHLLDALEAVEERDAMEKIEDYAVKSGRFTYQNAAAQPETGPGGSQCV
flag-tagged full-length TRAIL-R (1–381; TRAIL-R^WT-FLAG): residues 53-381 of Q9QZM4
flag-tagged death domain-truncated TRAIL-R mutant (1–273; TRAIL-R^△DD-FLAG): residues 53-273 of Q9QZM4
UniProt P06240: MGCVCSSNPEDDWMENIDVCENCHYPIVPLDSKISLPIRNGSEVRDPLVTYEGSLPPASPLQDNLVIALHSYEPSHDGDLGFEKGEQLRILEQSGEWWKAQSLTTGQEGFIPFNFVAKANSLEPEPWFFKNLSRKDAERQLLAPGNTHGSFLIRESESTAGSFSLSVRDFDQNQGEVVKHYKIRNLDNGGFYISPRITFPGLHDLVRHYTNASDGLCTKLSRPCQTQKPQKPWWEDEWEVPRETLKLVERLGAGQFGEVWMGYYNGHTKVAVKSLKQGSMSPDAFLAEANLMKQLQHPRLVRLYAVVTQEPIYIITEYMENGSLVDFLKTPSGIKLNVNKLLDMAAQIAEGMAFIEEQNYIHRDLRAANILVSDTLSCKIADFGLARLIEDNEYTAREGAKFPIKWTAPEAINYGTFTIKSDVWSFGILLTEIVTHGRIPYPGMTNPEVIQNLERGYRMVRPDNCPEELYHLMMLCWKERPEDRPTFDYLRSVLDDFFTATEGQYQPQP
UniProt P41241: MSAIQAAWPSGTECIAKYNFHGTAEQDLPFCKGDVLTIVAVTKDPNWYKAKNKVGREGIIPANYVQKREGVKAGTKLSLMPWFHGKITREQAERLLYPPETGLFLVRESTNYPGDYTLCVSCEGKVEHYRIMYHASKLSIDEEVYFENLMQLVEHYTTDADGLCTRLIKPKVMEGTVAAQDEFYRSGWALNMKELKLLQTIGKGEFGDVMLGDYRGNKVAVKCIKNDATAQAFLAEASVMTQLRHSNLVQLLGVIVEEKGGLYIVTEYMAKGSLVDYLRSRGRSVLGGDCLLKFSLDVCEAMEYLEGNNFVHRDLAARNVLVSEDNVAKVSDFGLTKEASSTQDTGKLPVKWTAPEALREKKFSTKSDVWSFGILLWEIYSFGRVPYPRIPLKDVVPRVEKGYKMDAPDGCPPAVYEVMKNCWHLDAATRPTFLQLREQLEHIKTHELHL
UniProt P29351: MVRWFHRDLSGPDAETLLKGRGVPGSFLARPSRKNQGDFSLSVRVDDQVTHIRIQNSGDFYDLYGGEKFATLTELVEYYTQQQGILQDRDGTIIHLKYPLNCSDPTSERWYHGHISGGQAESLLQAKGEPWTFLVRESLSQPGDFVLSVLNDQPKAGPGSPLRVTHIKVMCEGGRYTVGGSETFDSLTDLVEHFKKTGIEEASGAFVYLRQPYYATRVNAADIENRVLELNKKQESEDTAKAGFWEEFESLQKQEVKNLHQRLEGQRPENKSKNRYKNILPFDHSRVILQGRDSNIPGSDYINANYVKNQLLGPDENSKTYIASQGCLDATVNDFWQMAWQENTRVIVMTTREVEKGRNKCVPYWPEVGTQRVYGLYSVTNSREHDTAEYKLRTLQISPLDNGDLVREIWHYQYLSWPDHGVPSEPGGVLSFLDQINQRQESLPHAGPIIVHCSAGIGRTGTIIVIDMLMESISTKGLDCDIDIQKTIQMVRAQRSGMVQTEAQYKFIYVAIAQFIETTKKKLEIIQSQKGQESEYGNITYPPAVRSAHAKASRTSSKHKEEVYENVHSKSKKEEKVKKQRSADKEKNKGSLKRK

Assays:
[1] = molecular target: TRAIL receptor (TRAIL-R), endogenous in murine T cells (mouse (endogenous in murine splenic CD4+ T cells)) (UniProt Q9QZM4); test: co-IP; endogenous proteins of murine splenic CD4+ T cell extracts; IP with anti-TRAIL-R Ab, reciprocal IP, or anti-Lck Ab, protein G-agarose, lysis buffer 50 mM Tris pH 8.0, 150 mM NaCl, 1% Triton X-100, 0.5% deoxycholate, 0.1% SDS, 4 °C, 3 h, immunoblot; cells resting, treated with TRAIL (10 µg/mL) and/or stimulated with anti-CD3 (3 µg/mL) and anti-CD28 (2 µg/mL) Abs
[2] = molecular target: Lck, endogenous in murine T cells (mouse (endogenous in murine splenic CD4+ T cells)) (UniProt P06240); test: as above
[3] = molecular target: flag-tagged full-length TRAIL-R (1–381; TRAIL-R^WT-FLAG) (mouse) (UniProt Q9QZM4); test: co-IP; EL4 T cells transfected with TRAIL-R^WT-FLAG or TRAIL-R^△DD-FLAG, stimulated with anti-CD3 (3 µg/mL) and anti-CD28 (2 µg/mL) Abs in the presence or absence of TRAIL (10 µg/mL) for 30 min; immunoprecipitation and immunoblot
[4] = molecular target: flag-tagged death domain-truncated TRAIL-R mutant (1–273; TRAIL-R^△DD-FLAG) (mouse) (UniProt Q9QZM4); test: as above

| binding [1] | binding [2] | binding [3] | Substance | binding [4] |
| --- | --- | --- | --- | --- |
| no binding |  |  | Cbl (E3 ubiquitin ligase), endogenous in murine T cells (from UniProt P22682 1-913) (enzyme) |  |
| no binding |  |  | Csk (Src tyrosine kinase), endogenous in murine T cells (from UniProt P41241 1-450) (enzyme) |  |
| binds |  |  | Lck, endogenous in murine T cells (from UniProt P06240 1-509) (enzyme) |  |
| binds | binds | binds | tyrosine phosphatase SHP-1, endogenous in murine T cells (from UniProt P29351 1-595) (enzyme) | no binding |
